# About 14,000 (4.5%) of roughly 310,000 compounds showed an effect of 50% or more. Effects have a minus sign here. This is one part of the list.
# Target: human ether-à-go-go-related gene (hERG) potassium channel (human, UniProt Q12809)
# Assay: primary screen, population patch clamp on CHO cells stably expressing hERG
# 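Note: peak tail current of the secondary pulse compared with the same well before compound.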
# Chain of human ether-à-go-go-related gene (hERG) potassium channel (Q12809 whole entry, looked up): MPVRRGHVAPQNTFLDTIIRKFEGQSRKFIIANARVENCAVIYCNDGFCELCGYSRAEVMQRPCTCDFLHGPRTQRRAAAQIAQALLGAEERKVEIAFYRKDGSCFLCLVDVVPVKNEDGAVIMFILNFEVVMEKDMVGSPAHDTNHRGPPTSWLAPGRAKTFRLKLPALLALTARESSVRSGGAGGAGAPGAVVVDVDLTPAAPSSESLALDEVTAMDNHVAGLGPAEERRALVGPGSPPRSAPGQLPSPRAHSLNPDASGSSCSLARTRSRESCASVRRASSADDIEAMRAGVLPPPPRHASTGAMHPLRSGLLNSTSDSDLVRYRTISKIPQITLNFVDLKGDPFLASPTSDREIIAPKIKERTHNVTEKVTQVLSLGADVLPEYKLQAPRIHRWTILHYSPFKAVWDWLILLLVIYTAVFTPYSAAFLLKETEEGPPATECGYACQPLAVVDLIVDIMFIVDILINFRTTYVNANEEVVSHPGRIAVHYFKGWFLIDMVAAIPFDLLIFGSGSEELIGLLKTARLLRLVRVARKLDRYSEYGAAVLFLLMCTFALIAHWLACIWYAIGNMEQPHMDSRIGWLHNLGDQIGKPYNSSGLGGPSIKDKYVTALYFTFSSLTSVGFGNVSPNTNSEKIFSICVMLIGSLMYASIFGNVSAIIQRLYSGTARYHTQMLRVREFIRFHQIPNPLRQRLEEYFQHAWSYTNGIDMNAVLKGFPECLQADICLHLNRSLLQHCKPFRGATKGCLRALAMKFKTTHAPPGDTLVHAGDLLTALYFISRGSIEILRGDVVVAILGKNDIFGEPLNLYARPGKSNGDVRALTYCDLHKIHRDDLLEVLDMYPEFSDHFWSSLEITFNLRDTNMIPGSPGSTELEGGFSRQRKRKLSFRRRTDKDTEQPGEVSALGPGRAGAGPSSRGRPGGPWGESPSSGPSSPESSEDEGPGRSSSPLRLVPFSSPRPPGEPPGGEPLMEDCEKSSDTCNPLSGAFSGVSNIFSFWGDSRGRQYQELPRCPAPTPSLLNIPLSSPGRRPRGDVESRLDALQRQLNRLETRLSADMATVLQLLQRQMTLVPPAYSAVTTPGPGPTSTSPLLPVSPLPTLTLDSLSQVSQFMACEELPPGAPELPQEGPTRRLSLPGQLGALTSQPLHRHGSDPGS
row,Compound,"hERG current change (%, negative = inhibition) at 10uM [%]"
1,Clc1ccc(C2=Nn3c(nnc3-c3n[nH]c4c3CCC4)SC2)cc1Cl,-6.34
2,CCC(=O)OCCCCCCOc1ccc(C(=O)O)cc1,21.9
3,Cc1ccc(S(=O)(=O)NCCC(=O)OCn2nnc3ccccc3c2=O)cc1,-10.3
4,COc1ccc(S(=O)(=O)N(CC(=O)NC2CC3CCC2C3)c2ccccc2OC)cc1 (stereo not shown),-25
5,C/C(=N/NC(=O)c1ccc(Cl)s1)c1ccc(NC(=O)COc2ccc(Cl)cc2)cc1,7.1
6,C=CCOc1cccc(/C=C/c2nc3ccccc3c(=O)[nH]2)c1,9.98
7,CCn1ccnc1C(O)c1cccc2ccccc12 (stereo not shown),15.7
8,CCN(CC)C(=O)c1sc(NC(=O)c2cccnc2)c(C(=O)OC)c1C,-18.6
9,O=C(c1ccc(N2C(=O)C3CC=C(Cl)CC3C2=O)cc1)N1CCOCC1 (stereo not shown),5.13
10,Cc1ccc(S(=O)(=O)N2CCN(C(=O)Cc3ccccc3)CC2)cc1,-26.1
11,CC(=O)C1=C(O)C(=O)N(Cc2ccccc2)C1c1ccccc1F (stereo not shown),11.6
12,CN(CCC#N)C(=O)COC(=O)/C=C/c1ccc2c(c1)OCO2,10.7
13,Cc1ccc(NC(=O)c2ccc(-n3cccn3)c([N+](=O)[O-])c2)cc1C,-2.66
14,CCOCC(=O)Nc1ccc2c(c1)N(S(=O)(=O)c1cccs1)CCC2,-16.6
15,FCCCOc1ccc(-c2nccc(-c3ccc(Br)cc3)n2)cc1,16.4
16,O=C(N/N=C/c1ccc(F)cc1)c1ccc(OCc2ccccc2)cc1,21.4
17,CCOc1ccc(/C=N/Nc2cc(N3CCOCC3)nc(C)n2)c(O)c1,-2.14
18,NC(=O)c1ccsc1NC(=O)c1coc2ccccc2c1=O,-2.56
19,Cc1ccc(NC(=O)c2ccc(S(=O)(=O)NCC3CCCO3)cc2)cc1C (stereo not shown),5.89
20,CCCCCOC(=O)c1ccc(NC(=O)c2ccco2)cc1,-3.19
21,CC12C(=O)N(Cc3ccco3)C(=O)C1C1c3ccccc3C2c2ccccc21 (stereo not shown),-4.41
22,COc1ccc(-n2nnnc2SCC(=O)Nc2nc3c(s2)CCCC3)cc1,9.26
23,O=C(Nc1nncs1)c1ccc2c(c1)OCO2,-28.6
24,COc1ccc(C(=O)NCCCNC(=O)c2ccccn2)cc1Br,-3.18
25,Cc1nc2c(-c3ccccc3)c(C)nn2c(C)c1CCC(=O)NC(C)CCc1ccco1 (stereo not shown),-66.6
